# In publication PMC6919601, “Identification of Plasmodium dipeptidyl aminopeptidase allosteric inhibitors by high throughput screening” (PLoS ONE, 2019):
# Where “and” joins values, the source holds several entries; their conditions need not be identical. Identical values can stand only once. The campaign covered roughly 110,000 compounds. About 230 (0.21%) showed an effect of 50% or more. The list shows a part of the results.
# Molecular target: DPAP1 (Plasmodium falciparum, UniProt Q8IIJ9)
# Test: primary screen, percent inhibition; read by cleavage of a fluorogenic dipeptide substrate; higher = more effect of the substance
# Parameters: species or system P. falciparum D10 trophozoite lysates; single well
# 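Also: 30 min substrate incubation versus DMSO and 10 µM JCP410 controls.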
# DPAP1, sequence (Q8IIJ9 whole entry, looked up): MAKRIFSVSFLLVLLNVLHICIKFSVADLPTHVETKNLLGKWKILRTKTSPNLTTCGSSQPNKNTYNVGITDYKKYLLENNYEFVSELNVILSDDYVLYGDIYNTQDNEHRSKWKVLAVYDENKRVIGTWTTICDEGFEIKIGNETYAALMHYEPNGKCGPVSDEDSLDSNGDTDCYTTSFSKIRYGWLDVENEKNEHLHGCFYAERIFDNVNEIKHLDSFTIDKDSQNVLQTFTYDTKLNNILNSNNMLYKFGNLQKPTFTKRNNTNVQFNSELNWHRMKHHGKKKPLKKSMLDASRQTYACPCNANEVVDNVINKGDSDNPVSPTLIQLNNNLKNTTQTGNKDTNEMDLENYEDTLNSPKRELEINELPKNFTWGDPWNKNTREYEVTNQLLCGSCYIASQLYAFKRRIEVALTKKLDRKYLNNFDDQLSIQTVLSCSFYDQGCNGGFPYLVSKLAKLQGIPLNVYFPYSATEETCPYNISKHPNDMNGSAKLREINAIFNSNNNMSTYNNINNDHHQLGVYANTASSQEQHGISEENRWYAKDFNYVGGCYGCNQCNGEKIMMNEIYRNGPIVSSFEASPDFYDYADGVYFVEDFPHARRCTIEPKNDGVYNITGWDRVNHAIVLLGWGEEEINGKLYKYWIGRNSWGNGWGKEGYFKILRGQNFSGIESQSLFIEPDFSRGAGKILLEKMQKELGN
row,Structure (SMILES),% Inhibition @ 10 uM
1,N#CCNC(=O)[C@H](CC1CCCCC1)NC(=O)Nc1ccccc1,-0.214%
2,Fc1ccc(-c2nsc3c(N4CCOCC4)ncnc23)cc1,0.758%
3,Cc1cccc(C(=O)N2CCN(C(=O)c3cccc(C)c3)C(C)C2)c1 (stereo not drawn),-6.6%
4,Cc1ccccc1C(=O)Nc1ccc(F)cc1,3.53%
5,COc1cc(CN2CCN(c3ccc(Cl)cc3)CC2)cc(OC)c1,3%
6,CCCCNC(=O)CCc1c(C)nc2cc(-c3ccc(Cl)cc3)nn2c1C,-6.03%
7,Cc1cc(C)c2nc(O)cc(C(=O)O)c2c1,-1.33%
8,COc1ccccc1C(=O)N(Cc1ccccc1F)C1CCS(=O)(=O)C1 (stereo not drawn),-1.35%
9,COc1ccc(C(=O)Cn2c(N3CCN(C)CC3)nc3c2c(=O)n(C)c(=O)n3C)cc1,1.43%
10,COCCNC(=O)c1cnn(-c2ccc(C)cc2)c1C1CCN(C(=O)OC(C)(C)C)CC1,-5.8%
11,CCc1ccc(CNC(=O)CN2N=C(c3ccc(Cl)cc3)CCC2=O)cc1,0.514%
12,CC(=O)C1=C(O)C(=O)N(Cc2ccccc2)C1c1ccc(Br)cc1 (stereo not drawn),-2.67%
13,CC1=C(C(N)=O)C(c2ccccc2)NC(S)=N1 (stereo not drawn),-0.339%
14,COc1ccccc1/C=C1/SC(Nc2ccccc2C)=NC1=O,-2.34%
15,O=C1C(=Cc2c[nH]c3ccccc23)C(=O)c2ccccc21,6.33%
16,NC(=S)N/N=C/c1nc2ccccc2n1Cc1ccccc1,4.1%
17,COc1ccc(-c2cn3c(n2)sc2cc(C(=O)N(C)Cc4ccccc4)ccc23)cc1,14.7%
18,CO/C(O)=C1/C(C)=Nc2nc(O)nc(O)c2C1c1ccc(Br)cc1 (stereo not drawn),3.47%
19,Cc1ccc(S(=O)(=O)N2CCN(CCCOc3ccccc3Cl)CC2)cc1,-2.28%
20,COc1ccccc1C(=O)Nc1ccc2c(c1)OCO2,1.89%
21,O=C(Nc1ccc(Cl)cc1)N(Cc1ccccc1)Cc1ccccc1,2.47%
22,CC(=O)c1c(C(F)(F)F)nn(C(=O)c2ccccc2)c1C,-0.703%
23,CC1CCCN(S(=O)(=O)c2ccc3nc(O)cc(C(=O)NCCCN4CCCCC4C)c3c2)C1 (stereo not drawn),3.66%
24,O=C(NCc1ccccn1)C1CCCN(c2nn3cc(-c4ccc(F)cc4)nc3s2)C1 (stereo not drawn),7.01%
25,Cc1ccc(-c2noc(CCC(=O)N3CCCC(C)C3)n2)cc1 (stereo not drawn),-6.58%

row,Structure (SMILES),% Inhibition @ 10 uM
1,Cc1nn2c(-c3ccncc3)nnc2c2ccccc12,0.366%
2,CC1CCN(c2c(NCC3CCC(C(=O)NCCCc4ccccc4)CC3)c(=O)c2=O)CC1 (stereo not drawn),-6.04%
3,CC(C)(C)c1ccc(OCCCCN2CCCCC2)cc1,0.135%
4,CC(C)C[C@H](NC(=O)c1ccc(OC(F)(F)F)cc1)C(=O)NCC#N,0.174%
5,CC(=O)c1sc(N)c(C(=O)Nc2cccc(C)c2)c1C,4.56%
6,CCN1C(=O)c2cccc3c(S(=O)(=O)NC(CCSC)C(=O)O)ccc1c23 (stereo not drawn),-1.6%
7,COc1ccc(N(CC(=O)NC2CC3CCC2C3)S(=O)(=O)c2ccc(C)cc2)cc1OC (stereo not drawn),-0.46%
8,Fc1ccc(CN2CCN(c3ncccn3)CC2)cc1,-1.86%
9,CC(=O)OCC1OC2OC(C)(C)OC2C2OC(C)(C)OC12 (stereo not drawn),1%
10,COCCNC(=O)CCCn1c(SCc2ccccc2C#N)nc2c(sc3ccccc32)c1=O,1.66%
11,Cc1nc2ncnn2c(C)c1CCC(=O)NC(C)(C)C,2.93%
12,O=C(c1ccccc1)N(Cc1ccco1)Cc1ccco1,5.43%
13,Cc1ccc(OCc2ccccc2C(=O)Nc2nccs2)cc1,2.7%
14,O=C(Cn1cnc2c(nc3n2CCCCC3)c1=O)NCc1ccc(F)cc1,2.82%
15,CCOc1ccc(NCc2cc(Br)ccc2OC)cc1,-2.88% and 1.19%
16,COc1cc(C(=O)n2nc(N)c3c(C)cc(C)nc32)cc(OC)c1OC,-3.34%
17,COCCNC(=O)CN1CCCN(Cc2ccc(F)cc2Cl)C1=O,-6.4%
18,CCC(=O)N1CCN(c2ccc(NC(=O)c3ccc(Br)o3)cc2)CC1,-0.872%
19,CCOc1ccc(NC(=O)c2cccc(Cl)c2)cc1,-6.33%
20,CCN1C(=O)c2ccc(C(=O)Nc3cccc(C(=O)O)c3)cc2C1=O,4.22%
21,COc1cc(/C=C2\NC(=O)N(Cc3ccc(Cl)cc3)C2=O)ccc1OC(C)C,-3.06%
22,O=C(CC12CC3CC(CC(C3)C1)C2)N1CCCC1,-2.44%
23,COc1ccc(-c2noc(CSc3nnc(-c4ccncc4)n3-c3cccc(C)c3)n2)cc1,2.89%
24,CC12CCC(C(/C=N/CC/N=C/C3=C(O)C4(C)CCC3C4(C)C)=C1O)C2(C)C,1.33%
25,O=C(C1=C(O)C(=O)N(CC2CCCO2)C1c1cccnc1)c1ccc2c(c1)OCCO2 (stereo not drawn),-9.12%

row,Structure (SMILES),% Inhibition @ 10 uM
1,CS(=O)(=O)N(CC(=O)Nc1ccc2c(c1)OCO2)c1ccc(Cl)c(Cl)c1,-1.82%
2,O=C(c1ccc(COc2ccccc2Br)o1)N1N=C(C(F)F)CC1(O)C(F)F (stereo not drawn),3.72%
3,Cc1ccc(S(=O)(=O)N(Cc2ccccc2)Cc2ccccc2)cc1,-0.999%
4,CCOC(=O)c1cc(S(=O)(=O)NCC2CCN(Cc3cccc(C)c3)CC2)cn1C,3.92%
5,Cc1nc2sccn2c1-c1csc(Nc2ccc(N(C)C)cc2)n1,-0.711%
6,O=C1c2ccccc2C(=O)n2ccnc21,-10.1%
7,CCOc1ccccc1N1CCN(C(=O)CC)CC1,2.03%
8,N#CCNC(=O)[C@H](CC1CCCCC1)NC(=O)c1cccc([N+](=O)[O-])c1,1.35%
9,Nc1nc(/C=C/c2cccnc2)nc(-c2ccccc2O)n1,-0.834%
10,COc1ccc(C2C(C(C)=O)=C(C)N=c3s/c(=C/c4ccc(OC)cc4OC)c(=O)n32)cc1 (stereo not drawn),-0.305%
11,O=C(Nc1ccc2ccccc2c1)c1cccc(NC(=O)C(F)(F)F)c1,-1.64%
12,O=C(NCc1ccccc1)c1ccccc1Br,5.35%
13,Cc1ccc(S(N)(=O)=O)cc1NC(=O)COc1ccc(Cl)cc1C,-2.37%
14,Cc1ccccc1OCC(=O)Nc1ccc(S(=O)(=O)Nc2nccs2)cc1,5.25%
15,O=C(CN(c1ccc(F)cc1)S(=O)(=O)c1ccccc1)N1CCN(Cc2ccccc2)CC1,-6.44%
16,Cc1ccc(OCC(=O)Nc2cc(Cl)ccc2Cl)cc1,-1.05%
17,CCN(CC)CCN1C(=O)CCCc2sc3c(c21)CCCC3,-1.91%
18,CCOc1ccccc1C(=O)Nc1cccc(C(C)=O)c1,0.219%
19,Cc1ccc(/C=C/C2=NC(=C\c3cc(Br)cs3)/C(=O)O2)cc1,14.8%
20,COc1cc(OC)c(C2C(C#N)=C(N)OC3=C2C(=O)CCC3)cc1OC (stereo not drawn),-0.0372%
21,Cc1csc2nc(CNC(=O)c3cccc(C(F)(F)F)c3)cn12,2.57%
22,Cc1ccccc1S(=O)(=O)Cc1ccc(C(=O)NCCc2ccc(Cl)cc2)o1,2.14%
23,CC1=NN(C(=O)c2ccc(COc3cc(C)cc(C)c3)o2)C(O)(C(F)(F)F)C1 (stereo not drawn),-0.545%
24,CC1(c2ccccc2)OC(=O)C2C3CCCCC3=C3CCCCC3C21 (stereo not drawn),-3.66%
25,COc1cccc(C=C2C(=O)N(C)C(=O)N(C)C2=O)c1OC,-0.771%

row,Structure (SMILES),% Inhibition @ 10 uM
1,CC12CN3CCN(C1)CC(C)(C3)C2=NO,-2.15%
2,O=C(c1ccco1)N1CCN(c2csc3ccccc3c2=O)CC1,-1.51%
3,Cc1c(NC(=O)c2ccccc2)cc(S(=O)(=O)c2ccccc2)c(O)c1C,1.25%
4,CC(=O)Nc1ccc2nc(SCC(=O)N3CCCC3)sc2c1,6.27%
5,COc1ccccc1/C=C/CN1CCN(C)CC1,1.08%
6,Cn1c(N)c(C(=O)c2ccccc2)c(=O)n(C)c1=O,4.09%
7,COc1cc(/C=C/C(=O)c2c(O)cc(C)oc2=O)cc(OC)c1O,6.43%
8,Cc1ccc2nc(N(CCCN(C)C)C(=O)c3ccc(Cl)s3)sc2c1,4.91%
9,CC(CN(C)C)OC(=O)C1(c2ccccc2)CCCC1 (stereo not drawn),-7.01%
10,N#Cc1c(-c2ccccc2)cc(-c2ccccc2)nc1SCC(N)=O,4.67%
11,CCC(O)C#CC1(C)CCCC(C)(C)O1 (stereo not drawn),-5.41%
12,CCN(CC)C(=O)CSc1nc(C23CC4CC(CC(C4)C2)C3)ccc1C#N,-2.79%
13,Cc1cccc(C(=O)Nc2ccccc2Br)c1,-0.0404%
14,CC(C)C[C@H](NC(=O)c1ccc(-c2csc(N=C(N)N)n2)cc1)C(=O)N[C@@H](Cc1cccnc1)C(=O)O,-5.64%
15,CCN(CC)CCOC(=O)c1cccc2c1-c1ccccc1C2O (stereo not drawn),1.84%
16,CC[C@H](NC(=O)[C@H](CS(=O)(=O)Cc1ccccc1)NC(=O)N1CCOCC1)C(=O)c1ccccn1,-8.82%
17,CCOC(=O)c1nn(-c2ccccc2)c(C(=O)OCC)c1NC(=O)C1CCCCC1,-7.23%
18,Cc1nnc(N2C(=N)S/C(=C\c3ccco3)C2=O)s1,-3.74%
19,COc1ccc(C2C(C#N)=C(N)Oc3[nH]nc(-c4cccs4)c32)cc1Br (stereo not drawn),-4.6%
20,COc1cc(C2=NOC(C(=O)Nc3cc(C)nn3-c3ccccc3)C2)cc(OC)c1OC (stereo not drawn),-0.431%
21,CCOC(=O)c1c(C)c(C(=O)N2CCCCCC2)c(C)n1C,-1.66%
22,CCOc1ccc(C2C(C#N)=C(N)Oc3c2c(C)nn3-c2ccc(C)cc2)cc1 (stereo not drawn),-4.49%
23,O=C(CCN1C(=O)c2cccc3cccc(c23)C1=O)N1CCN(C/C=C\c2ccccc2)CC1,5.39%
24,COc1cc(CN2CCCCC2CO)cc2c1OCO2 (stereo not drawn),-1.5%
